Experimental data taken from the RNAGym collection of RNA variant scans (doi:10.1093/nar/gkz1192).
Read counts are not given, so values of variants with three or more changes are uncertain.

B1: CPEB3 Ribozyme (parent)
chain: UAACAGGGGGCCACAGCAGAAGCGUUCACGUCGCAGCCCCUGUCAGAUUCUGGUGAAUCUGCGAAUUCUGCUGUAUAUCUC

Variants of: B1
Assay: self-cleavage, relative activity (ratio to wild type); higher = more cleavage; in vitro, sequencing
Outline: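 For each CPEB3 ribozyme variant, relative activity is its cleaved/total read fraction divided by the unmutated ribozyme's. Barcoded error-prone PCR libraries were transcribed by T7 RNA polymerase (5 hours, 37°C) and held in DNase I for 15 min before an EDTA stop, with cleavage occurring throughout. Template-switching reverse transcription and Illumina sequencing were used to read the RNAs. A 5-read minimum applied, and results are the mean of three batches.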

Variant	self-cleavage
A35G U43A A45U A47G	1.19
A35C U60G A65G	0.1
A35G C37G A45G	0.6
A35G U43C A56G U58A U60C	0.18
C32U A77G U80C	0.19
U31C G42C U49C G70A	0.04
U31C C44A A47U U58G U80C	0.13
G33A U60A C68U	0.16
U31C U49A A75G U80G	0.49
U31C U41C A45U U74C	0.34
A35C U58A A65G U67C	0.17
A35G U48C A75G U78A	1.25
A35G U54G A57U U72C	0.84
G33U U51G U80A	0.08
U31C G36C U58A U80A	0.08
U31C U67A U72C U78C	0.23
A35G C40U U78C	1.24
G33A A57G A65G	0.1
U31C G33A A56G	0.05
U31C C40U G53U A56U A75G	0.13
C32U A35G A56U A57G	0.12

Variant	self-cleavage
A35G U49C A57U U67C	0.14
A35C U41C U78C	0.74
U31C U48A G73A	0.48
G33A U41C A56U U58C U69C	0.13
A35G U60G C71A	0.4
A35G A45G A56U A65G C68U G70A	0.4
G33A U41A U72G U78C	0.13
G33A U60C U67A U74C	0.11
G33U U51A A65G	0.2
U31C C32G U60A	0.13
C32A U41A U43C U69A	0.23
C34U U48C A56G U76C U80A	0.05
A35G U41A A57G U80C	0.17
A35G U48A U76C	1.28
A35G U51A A64U	1.17
C34A U48C U60C U76C U80C	0.11
G33A A45U G63C	0.12
U31C G33U U41C	0.5
C34A U60G U78C	0.11
U31C U41C U54G U66C	0.13
A35G U48C U60C G73A	0.3

Variant	self-cleavage
A35G U48C U78C	1.21
G33A A45U A65G	0.13
C32A A45G U66C U78C	0.12
C32A A56G A64G U69C	0.37
U31C U54A A56G	0.5
A35G U41C U49C U54C G63A C68G U78C	0.18
C34U C71U U76C	0.09
A35G U51A A57G U60C	0.76
C32G G52A U72C A77U	0.16
A35G U51A U66C U78C	1.14
U31C C40A U60A U67C	0.12
G33U U43A U76A	0.36
U31C U51A U54G	0.48
U31G A45U U51C	0.11
C32A U41C A56U	0.09
C32A U69A U72C	0.07
U31C U43A U49C A56C	0.19
A35G U49G G52U A64G	1.25
A35G G46A C62U U72A U80C	0.16
U31C C38G C44A	0.19
C32G C39U C40A U41G A47G	0.03

Variant	self-cleavage
C32U U41A U58C	0.18
A35G U41C U51C A56G U72C	1.26
A35G C44U G46C A47G	0.13
C32U U58A U80C	0.17
U31C U54C A65G A75U	0.27
C32U C40A A65G	0.17
U31C U41C G70C	0.16
A35G U54C C62A A77U	0.18
U31C U41A C81U	0.26
C32U G33A A56G A57G	0.09
U31C U48C G53A	0.81
A35G U41A U67G	0.24
U31C U41G U66C U76C	0.08
U31C U41C U54C U69C U72C	0.09
U31C G33A A47G	0.23
U31C U43C U74C A75G	0.58
A35G G61A A64G	1.08
U31C U72A C79A	0.99
A35G A45G U80A	1.27
G33C G52C U54G A57G	0.12
